From ChEMBL document CHEMBL4888484, “Replenishing the malaria drug discovery pipeline: Screening and hit evaluation of the MMV Hit Generation Library 1 (HGL1) against asexual blood stage Plasmodium falciparum ,using a nano luciferase reporter read-out” (2022)
Hit rate of the full screen: of about 150,000 compounds, about 540 (0.36%) showed an effect of 50% or more. The list shows a part of the results.

system: Plasmodium falciparum; assay: Primary screen in NF54 nanoGlo assay, in single point, at 2uM, 72h; a lower Z score goes with more inhibition; type: functional, Erythrocyte; conditions: timepoint 72 hour

Row | Structure (SMILES) | % Inhibition [%] | Z score
1 | Cc1ccc(-c2noc(-c3cccc(S(=O)(=O)Nc4ccccn4)c3)n2)cc1 | 5 | -0.67
2 | Cc1ccc(CN2CCc3c(cc(C(=O)N(C)Cc4ccccc4)n3C)C2)cc1 | -4 | 0.76
3 | O=C(CNc1ccc(F)cn1)NCC(F)(F)F | 5 | -0.91
4 | CCOc1cc(C(=O)N(C)Cc2ccc(F)cc2F)ccc1OCc1cccnc1 | 5 | -0.66
5 | COc1ccc(NC(=O)CCc2ccc3ccn(C)c3c2)cc1 | 5 | -0.61
6 | CCCn1cnnc1Cn1ccnc1-c1c(C)sc2ccccc12 | 7 | -1.38
7 | CNCCCOc1ccccc1-c1ccc2c(c1)OCO2 | 19 | -2.45
8 | CCS(=O)(=O)c1ccccc1N(C)CCn1cccn1 | -1 | 0.15
9 | c1ccc(Oc2nc(-c3ccccc3)cc(-c3ccccc3)n2)cc1 | 7 | -1.33
10 | CC(C)Cn1c(-c2cccc(C(=O)NCCN3CCCC3)c2)nc2cccnc21 | 8 | -1
11 | COc1cccc(CNCCc2c[nH]c3ccccc23)c1OCc1ccccc1F | -9 | 1.47
12 | CCNc1ncc(-c2nc(CCOC)nn2CC(F)(F)F)cn1 | -7 | 1.3
13 | CCS(=O)(=O)N1C[C@@H]2CN(C(=O)CCn3nc(C)cc3C)C[C@]2(c2nc(C)no2)C1 | -13 | 1.8
14 | Cc1[nH]c2ccccc2c1C(=O)N1CCC[C@@]2(CCN(C)C2)C1 | -7 | 1.48
15 | CC1CC(C)CN(S(=O)(=O)NCCOCC2CCOC2)C1 (stereo unspecified) | -11 | 0.92
16 | Cc1nn(C)c(C)c1OCc1nnc(C2CCC2)n1C | 39 | -5.65
17 | Cc1ccc(NC(=O)COC(=O)c2nccc3ccccc23)cc1 | 34 | -4.58
18 | CN(CCCN1CCOCC1)c1nnc(-c2ccccc2)s1 | -2 | 0.32
19 | Cc1ccc([C@H]2c3cc(OCc4nc(C(=O)NCc5ccccc5)co4)ccc3CCN2C(=O)CC(C)C)cc1 | -3 | 0.51
20 | CCCc1cc(=O)n(-c2ccc(C(=O)NC[C@H]3CCCCN3CC)cc2)[nH]1 | -6 | 0.83
21 | CCC[C@@]1(C2CCN(C(=O)c3cccnc3OC)CC2)NC(=O)N(CCc2cccs2)C1=O | 8 | -1.05
22 | Cc1nc(C#N)c(C#N)n1Cc1nc2ccccc2n1C | -2 | 0.22
23 | CC[C@H]1CC[C@H](C(=O)Nc2ccc(Oc3nnn[nH]3)cc2)CC1 | -5 | 0.46
